Source: PubChem BioAssay AID686978 (National Center for Advancing Translational Sciences (NCATS), 2013)
In all, about 420,000 compounds went through this assay and about 64,000 (15%) were called active. The inconclusive results got no clear call from the source; some entries with a clear call stand among them for comparison. Calls follow the shape of the dose curve; as a rule, active = well fitted inhibition curve with a large enough effect; inconclusive = small, poorly fitted or top-dose-only effect; inactive = flat fitted curve, though single readings scatter. Potencies of inconclusive entries are left out as doubtful fits.
% is scaled to controls: 0 for no effect and ±100 for the full control effect; potency is read from the fitted curve at half-maximal effect; tags tell the direction and shape of the fitted curve.

Assay: qHTS for Inhibitors of human tyrosyl-DNA phosphodiesterase 1 (TDP1): qHTS in cells in absence of CPT; also: nearly all actives have a fitted effect of over 55% in size
Settings: DT40 Tdp1-/- hTDP1 cells, no CPT, ATP luminescence, 48 h; activity change, negative = growth inhibition: at 46.2 µM (top of the series) unless noted
Procedure, shortened: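 A cellular qHTS used chicken DT40 cells lacking endogenous Tdp1 but carrying stably transfected human TDP1. Compounds were applied without camptothecin, and cell growth kinetics were judged by ATP-dependent luminescence after ≥48 hr.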
With `COc1ccc(CC(=O)NCc2ccc3c(c2)OCO3)cc1` the “activity change, negative = growth inhibition” value was inactive: -40.1%. With `CCOc1ccc2nc(N3CCCC(C(=O)NCc4ccccc4Cl)C3)sc2c1` (stereo not drawn) the Potency was inconclusive [inhibitor, single point]. In the case of `CC(=O)Nc1nnc(SCc2cc(=O)c3cccc(C)c3[nH]2)s1`, the Potency is reported as inconclusive [inhibitor, full curve]. For `O=C(NCc1ccc2c(c1)OCO2)c1c(-c2ccccc2)sc2ccccc12`, the Potency was inconclusive [inhibitor, partial curve]. With `Cc1ccc(S(=O)(=O)N2CCCCC2)cc1NC(=O)COC(=O)C1(C)CC1(Cl)Cl` (stereo not drawn) the “activity change, negative = growth inhibition” value was inactive: -19.6%. For `CC1=C(C(=O)Nc2ccc(C)cc2C)C(c2cccn2C)n2ncnc2N1` (stereo not drawn), the “activity change, negative = growth inhibition” value was inactive: -22.6%. With `COc1ccc(CCNC(=O)CCCCCn2c(=O)[nH]c3cc(OC)c(OC)cc3c2=O)cc1OC` the Potency was inconclusive [inhibitor, single point]. In the case of `COC(=O)c1ccc(C2/C(=C(/O)c3ccc4c(c3)CC(C)O4)C(=O)C(=O)N2Cc2ccncc2)cc1` (stereo not drawn), the “activity change, negative = growth inhibition” value is reported as inactive: 28.3%. With `COc1ccc(C2CC(c3cccs3)=NN2C(=O)CSc2nc(=O)n3ccccc3n2)cc1` (stereo not drawn) the Potency was inconclusive [inhibitor, single point]. In the case of `Cc1ccc(C)c(Cn2c(C)c(CNCc3ccc(F)cc3)c(C(=O)O)c2C)c1`, the Potency is reported as inconclusive [inhibitor, single point]. In the case of `C[C@H]1CCCCO[C@@H](CN(C)S(=O)(=O)c2ccc(F)cc2)[C@@H](C)CN([C@@H](C)CO)C(=O)c2cc(NC(=O)Nc3ccc4c(c3)OCO4)ccc2O1`, the Potency is reported as active: 9.2 µM. For `CC(=O)c1c(Cl)nc2ccc(Br)cc2c1-c1ccccc1`, the activity change, negative = growth inhibition was inconclusive: -36.8% [inhibitor]. With `COc1ccc(CNc2nc(-c3cccnc3)nn2C(=O)CC(C)C)cc1` the Potency was inconclusive [inhibitor, partial curve, poor fit]. For `Fc1ccc(CSc2nc3ccccc3[nH]2)cc1`, the Potency was inconclusive [inhibitor, partial curve]. With `CC1CCC(NC(=O)CCS(=O)(=O)c2ccc3c(c2)NC(=O)CO3)CC1` (stereo not drawn) the “activity change, negative = growth inhibition” value was inactive: -0.341%. With `Cc1cccc(N2CCN(S(=O)(=O)c3ccc4c(c3)CC(C)N4C(=O)C3CC3)CC2)c1C` (stereo not drawn) the Potency was active: 23.1 µM. For `CCOC(=O)C1=C(CCc2ccccc2)NC(=O)NC1c1ccc2ccccc2c1` (stereo not drawn), the Potency was inconclusive [inhibitor, single point]. With `Cc1cccc(C(=O)Nc2onc(C)c2C#N)c1` the Potency was inconclusive [inhibitor, single point]. In the case of `C=CCn1c(O)c(N=Nc2ccccc2)c2ccccc21`, the Potency is reported as inconclusive [inhibitor, single point]. With `CCOc1cc2c3c(c1)C(C)=CC(C)(C)N3C(=O)C2=O` the Potency was active: 2.59 µM. In the case of `Cc1ccc(C)c(N2CCN(c3nc4ccccc4c4nc(-c5cccnc5)nn34)CC2)c1`, the “activity change, negative = growth inhibition” value is reported as inactive: -26.7%. With `CCOC(=O)c1cccc(NC(c2nnc(-c3ccccc3)o2)c2ccccc2F)c1` (stereo not drawn) the Potency was inconclusive [inhibitor, single point]. In the case of `NC(N)=NCCN1CCCCCCC1`, the Potency is reported as “inactive”. For `CCOCCCNC(=O)c1cc(Cl)c(NC(=O)C2=C(C)OCCS2)cc1OC`, the Potency was active: 11.6 µM. In the case of `CCCCCC(=O)NC(NC(=S)N1CCOCC1)C(Cl)(Cl)Cl` (stereo not drawn), the Potency is reported as inconclusive [inhibitor, single point]. For `CC(C)Cn1c(-c2ccc(Br)o2)n[nH]c1=S`, the Potency was inconclusive [inhibitor, single point]. For `CCN(C(C)=O)c1nc(CSc2nnc(NC(C)C)s2)cs1`, the Potency was inconclusive [inhibitor, partial curve]. With `COc1ccc(CN2CCN(Cc3ccccc3F)CC2)c(OC)c1` the activity change, negative = growth inhibition was inconclusive: -32.8% [inhibitor]. In the case of `CCc1ccc(NC(=O)c2cnc3scc(C)n3c2=O)cc1`, the Potency is reported as inconclusive [inhibitor, single point]. For `Cc1ccc(CNC(=O)C2CCCN(c3nnc(-n4c(C)ccc4C)s3)C2)cc1` (stereo not drawn), the Potency was active: 18.4 µM. With `COc1ccc(NC(=O)CSc2nc(O)c(C/C=C/c3ccccc3)c(=O)[nH]2)cc1` the “activity change, negative = growth inhibition” value was inactive: -28%. For `O=C(/C=C/c1ccccc1[N+](=O)[O-])NCc1ccncc1`, the Potency was inconclusive [inhibitor, single point]. For `CN1CCN(C2CN(CCc3ccccc3)S(=O)(=O)C2)CC1` (stereo not drawn), the “activity change, negative = growth inhibition” value was inactive: -7.9%. With `Cc1cc(C(=O)Nc2cnc3ccccc3c2)ccc1[N+](=O)[O-]` the “activity change, negative = growth inhibition” value was inactive: -1.74%. In the case of `CC(C)CC(c1nnnn1C(C)(C)C)N1CCN(Cc2ccccc2)CC1` (stereo not drawn), the Potency is reported as inconclusive [inhibitor, single point]. For `CC1(C)OC(=O)C2(Cc3ccc(Cl)cc3N3CCCC32)C(=O)O1` (stereo not drawn), the Potency was inconclusive [inhibitor, partial curve]. For `CCCCN1C(=O)C(CC(=O)NC2CC2)CC(C(=O)N(CC)CC)=C1C` (stereo not drawn), the “activity change, negative = growth inhibition” value was inactive: -0.203%. In the case of `O=C(O)C/C(=C\c1cccc(NC(=O)c2ccccc2Cl)c1)c1nc2ccccc2s1`, the activity change, negative = growth inhibition is reported as inconclusive: -33% [inhibitor]. With `O=C(Nc1cccc(S(=O)(=O)N2CCCC2)c1)c1cc(=O)[nH]c2ccccc12` the “activity change, negative = growth inhibition” value was inactive: -8.22%. With `COc1ccccc1CNC(=O)CCC1N=C2c3ccccc3N=C(SCc3ccccc3Cl)N2C1=O` (stereo not drawn) the Potency was inconclusive [inhibitor, single point]. In the case of `O=C(O)c1ccccc1Nc1ccc([N+](=O)[O-])cc1`, the Potency is reported as active: 2.91 µM. For `COc1ccc(C(=O)NCC(=O)NCc2cc(=O)n(C)c(=O)n2C)cc1`, the “activity change, negative = growth inhibition” value was inactive: 3.56%. For `CC(C)(CSc1nncn1/N=C/c1ccco1)NS(=O)(=O)c1ccc(Cl)cc1`, the “activity change, negative = growth inhibition” value was inactive: -25.2%. In the case of `CCC(C(=O)Nc1cccc(C(F)(F)F)c1)c1ccccc1` (stereo not drawn), the Potency is reported as inconclusive [inhibitor, partial curve, poor fit]. In the case of `c1cn2c(Nc3ccc4c(c3)OCCO4)c(-c3ccc(N4CCOCC4)cc3)nc2cn1`, the “activity change, negative = growth inhibition” value is reported as inactive: -15.4%. With `CCOc1ccccc1OCC(=O)NCc1ccco1` the Potency was active: 12.6 µM. In the case of `Cn1c(SCC(=O)NCc2ccco2)nnc1C1CCCC1`, the “activity change, negative = growth inhibition” value is reported as inactive: 4.13%. With `COc1ccc(N2CCN(c3cncc(C)n3)CC2)cc1` the “activity change, negative = growth inhibition” value was inactive: -13.4%.
